Measurements: PubChem BioAssay AID1508623 (National Center for Advancing Translational Sciences (NCATS), 2021)
The campaign covered roughly 48,000 compounds. About 450 (0.94%) were called active. Another 19% or so got no clear call; they are omitted. The call rests on the fitted dose curve; in most records, active means well fitted inhibition curve with a large enough effect; inconclusive means small, poorly fitted or top-dose-only effect; inactive means no such curve, though single readings can be large or run the other way. Some of the results follow.

assay: Primary qHTS for Identification of Small Molecule Inhibitors of Huntingtin Promoter Activity; conditions: HEK293 HTT promoter firefly luciferase reporter (activity 0% = vehicle and -100% = no light), 24 h; series mostly up to 57.5 µM; activity change, negative = inhibition: at the top concentration; further: nearly all actives have a fitted effect of over 50% in size
Method in brief: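 Firefly luciferase readout (Dual-Glo, 10 min RT) after 24 h, 37 °C compound exposure (final up to 57.5 uM) of HEK293 reporter cells cultured 24 h beforehand; PTC124 at 50 uM final as control inhibitor; activity scaled vehicle 0%, zero RLU -100%.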

Activity change, negative = inhibition, inactive:
O=C1[C@H]2CCCC[C@H]2C(=O)N1CCCCN1CCN(c2nsc3ccccc23)CC1 -0.335%
COC(=O)c1cc(C)nc2c1c(=O)nc(SCc1ccccc1C)n2C1CC1 -33.2%
Cc1ccc(C(=O)NCC(c2ccc3c(c2)OCO3)N2CCOCC2)cc1 (stereo unspecified) -11.8%
Cc1c(-c2nc(-c3ccc4c(c3)OCO4)no2)nnn1-c1ccc(C(C)C)cc1 1.17%
CCc1nn(CCCC(=O)N2CCN(c3cccc(OC)c3)CC2)c(=O)c2cc3occc3n12 -12.3%
Cc1cccc(NC(=O)C(Cc2ccccc2)NS(=O)(=O)c2ccc3c(c2)c(=O)n(C)c(=O)n3C)c1 (stereo unspecified) -11.9%
CC(=O)Nc1c(C)nn(-c2ccccc2)c1N1CCC(C(=O)NCc2ccccc2Cl)CC1 -14.1%
Cc1ccc(S(=O)Cc2nc(-c3ccc(C(=O)NCc4cccc(C)c4)cc3)oc2C)cc1 (stereo unspecified) -7.12%
O=C(CCn1nc(-c2ccc(Cl)cc2)ccc1=O)NCCc1ccccc1 17.5%
CCOC(=O)c1c(NC(=O)CSc2cn(CCNC(=O)c3c(F)cccc3F)c3ccccc23)sc2c1CCC2 -25.6%
CCOC(=O)COc1ccc(F)cc1C(=O)c1ccn2nc(-c3ccc(Cl)cc3)cc2n1 -2.89%
CCOC(=O)c1noc2ncnc(Nc3cccc(OC)c3)c12 -25.2%
O=C(COc1ccccc1Cl)Nc1ccc2nc(SCC(=O)N3CCCC3)sc2c1 -25.1%
CCCn1c(=O)c2sccc2n2c(CCCC(=O)NCc3ccccc3)nnc12 -21.2%
COc1cccc(NC(=O)CSc2nc(-c3ccccc3Cl)nc3c2Cc2c(CO)cnc(C)c2O3)c1 -0.906%
COc1ccc(-c2cc(-c3ccccc3)nc(SCC(=O)Nc3ccccc3F)c2C#N)cc1 -5.89%
CCOC(=O)C1=C(CS(=O)(=O)c2ccc(OC)c(Cl)c2)NC(=O)NC1c1cccc(OC)c1 (stereo unspecified) -9.88%
Clc1cccc(Cl)c1NC1=NCCN1
COc1cccc(NC(=O)CSc2nc3c([nH]c4ccccc43)c(=O)n2-c2cccc(Cl)c2)c1 -29.2%
Cc1ccc(Cn2ccn(Cc3cccc(C(F)(F)F)c3)c(=O)c2=O)cc1 -26.2%
Cc1ccc(-c2ccc(=O)n(CC(=O)Nc3ccc(C(C)C)cc3)n2)cc1 -7.52%
CCOC(=O)c1ccc(NC(=O)CSc2nc(C)c(Cc3ccccc3)c(=O)[nH]2)cc1 -16.4%
C=CCOc1ccc(C2c3c(oc4ccc(C)cc4c3=O)C(=O)N2CCCN2CCOCC2)cc1 (stereo unspecified) 2.5%
COCCNC(=O)CCn1c(=O)c2cc(OC)c(OC)cc2n(CC(=O)Nc2ccccc2OC)c1=O -6.01%
Cc1ccc(-n2nc(C)c3c(C)cc(=O)n(CC(=O)NC(C)C)c32)cc1 6.06%
CCN(CC)CCOC(=O)c1ccc(NC(=O)CSc2cc(=O)n(CC)c3ccccc23)cc1 8.91%
CCc1nn(CC(=O)Nc2ccc(C)cc2C)c(=O)c2cc3sccc3n12 10.4%
Cc1ccc(NC(=O)c2cn(-c3ccccc3)nc2-c2ccccc2)cc1 -30.5%
O=C(NCc1ccccc1)c1ccc(NC(=O)N2CCSc3ncccc32)cc1 -36.9%
COc1cc(OC)c(NC(=O)c2cnn(-c3cccc(Cl)c3C)c2C2CCN(C(=O)OC(C)(C)C)CC2)cc1Cl -9.26%
Cc1ccc(C2=NN(CC(=O)NC(C)c3ccccc3)C(=O)CC2)cc1 (stereo unspecified) -8.36%
COc1ccc(-c2cn3nc(N4CCC(C(=O)NCc5ccc(F)cc5)CC4)sc3n2)cc1 19.6%
COc1ccc(NC(=O)C2CCC(CNS(=O)(=O)c3csc(C(N)=O)c3)CC2)cc1 (stereo unspecified) -21.6%
CC(C)c1ccc(Nc2c(-c3ccc(N4CCOCC4)cc3)nc3ncccn23)cc1 -3.14%
COc1ccc(-c2onc(C)c2C)cc1S(=O)(=O)Nc1ccc(OC(F)(F)F)cc1 -27.3%
CCOC(=O)c1cccc(NC(=O)c2cc(S(=O)(=O)N3CCCC3)cn2C)c1 -12.7%
CCOC(=O)CNC(=O)c1cc2c(=O)n(CC)c3ccccc3c2s1 10.3%
COC(=O)c1cc2sc(C)cc2n1Cc1ccccc1 -17.6%
CCCOC(=O)c1ccc(NC(=O)Cn2nnc3sc4c(c3c2=O)CCC(C(C)(C)C)C4)cc1 (stereo unspecified) 0%
Cc1ccc(CNC(=O)CSc2ccc(-c3sc(-c4ccccc4)nc3C)nn2)cc1 -2.57%
CC(=O)c1cc(-c2ccc(F)cc2)n(CC(=O)NC2CCCCCC2)c1C -24.4%
CCCOc1ccc(/C=C/C(=O)Nc2sc3c(c2C(=O)OCC)CCC(C)C3)cc1OC (stereo unspecified) -6.95%
CCOc1ccc(CCNC(=O)CN2C(=O)c3cccnc3Oc3ccc(C)cc32)cc1OCC -2.03%
O=C(Nc1cccc(C(F)(F)F)c1)c1cc2nc(-c3ccccc3)cc(C(F)(F)F)n2n1 0.883%
CCCOc1ccc(-c2cccc(NS(=O)(=O)c3cccs3)c2)nn1 -13%
CCOc1ccccc1CNC(=O)CCCn1c(=O)c2cccn2c2cccnc21 1.53%
Clc1ccc(N2CCN(Cc3nnc(-c4ccc5c(c4)OCO5)o3)CC2)cc1 -7.03%
COc1ccc(-c2cccc(NS(=O)(=O)c3cccs3)c2)nn1 -14.8%
CN(C)CCOC(=O)C(c1ccccc1)C1(O)CCCC1 (stereo unspecified) 0.459%
CCCCN(CC)C(=O)c1c[nH]c2ccc(S(=O)(=O)Nc3cccc(OC)c3)cc2c1=O -3.71%
COc1ccc(NC(=O)C2=C(C)Nc3c(C(=O)Nc4ccc(C)cc4)cnn3C2c2cccc(Cl)c2)cc1 (stereo unspecified) -9.02%
COc1ccc(NC(=O)CC2Nc3cccc4cccc(c34)NC2=O)cc1 (stereo unspecified) -19.5%
Cc1ccc2oc(-c3cccc(NC(=O)c4cccc5c(Br)cccc45)c3)nc2c1 10.3%
CC(=O)N1c2ccccc2CC1C(=O)N1CCN(c2cccc(C)c2C)CC1 (stereo unspecified) -21.2%
CCc1cc(Cl)c(OC)c(C(=O)NC[C@@H]2CCCN2CC)c1O 3.77%
Cc1ccc2onc(CC(=O)N3CCN(c4ccccc4F)CC3)c2c1 -15.9%
COc1ccc(-c2cc(C)no2)cc1S(=O)(=O)N1CCN(c2ccc(C(C)=O)cc2)CC1 -25.6%
O=C(CCCn1c(=O)c2cccn2c2ccccc21)Nc1cccc(Cl)c1 -25.5%
Clc1ccccc1CSc1nncn2c1cc1occc12 15.8%
COc1ccc(C(=O)NCC(c2cccnc2)N2CCN(c3ccccc3F)CC2)cc1OC (stereo unspecified) -30.4%
CCCc1nn2c(=O)cc(COC(=O)c3ccccc3NC(=O)C3CCCCC3)nc2s1 -10.4%
CCC(=O)N1CCc2cc(S(=O)(=O)CCC(=O)NCc3ccccc3Cl)ccc21 1.48%
COC(=O)c1c(C)sc(-c2c(-c3ccc(F)cc3)[nH]c3[nH]c(=O)[nH]c(=O)c23)c1O 1.57%
Cc1ccc(NC(=O)C2CCN(S(=O)(=O)c3cccs3)CC2)cc1 -29.3%
CCC(=O)O[C@]1(C(=O)SCF)[C@H](C)C[C@H]2[C@@H]3C[C@H](F)C4=CC(=O)C=C[C@]4(C)[C@@]3(F)[C@@H](O)C[C@@]21C
CCc1ccc(NC(=O)CN(c2ccc(C)cc2)S(=O)(=O)c2c(C)nn(C)c2C)cc1 -18.6%
COCCCNC(=O)N1CCN(c2nnc(C)c3c(C)n(-c4ccc(Cl)cc4)nc23)CC1 -2.88%
CCOc1cccc(CC(=O)N2CCc3c([nH]c4ccccc34)C2c2ccc(OC)cc2)c1OCC (stereo unspecified) -21.2%
COc1ccc(Cn2c(C(=O)O)c(CNCCc3cccs3)c3ccc(OC)cc32)cc1 -23.1%
COc1ccc(-c2c(C)nn3c(C(F)(F)F)cc(C)nc23)cc1OC -21.7%
Cc1oc2ncn(C)c(=O)c2c1C(=O)N1CCN(c2ccc(Cl)cc2)CC1 -34.5%
COc1cccc(CNCCCSc2nnnn2C)c1 -18%
Cc1ccccc1CN1C(=O)c2ccccc2S(=O)c2ccc(C(=O)NCc3ccccc3)cc21 (stereo unspecified) -28.8%
CC(C)Sc1ncc(Cl)c(C(=O)Nc2c(C(=O)Nc3ccccc3)oc3ccccc23)n1 -3.24%
Cc1nn(C)c2c1c(-c1ccccc1)cc(=O)n2Cc1c(F)cccc1Cl -7.27%
Cc1ccccc1Nc1c(-c2ccccc2O)nc2sccn12 -21.6%
CCc1cccc(NC(=O)c2sc3nc[nH]c(=O)c3c2C)c1 28.4%
CCc1ccc(NS(=O)(=O)c2ccc3[nH]cc(C(=O)N4CCCCCC4)c(=O)c3c2)cc1 21.1%
O=C1CN(C(=O)c2ccc(S(=O)(=O)N3CCCC3)cc2)C(c2ccc(F)cc2)c2cc(F)ccc2N1 (stereo unspecified) -22.8%
CCOC(=O)Cc1ccc(NC(=O)N2CCC(CN3CCC(C)CC3)CC2)cc1 -17.4%
COc1cc(C2C(C(=O)Nc3ccc(C)cc3C)=C(C)Nc3nc(SCc4ccccc4)nn32)cc(OC)c1OC (stereo unspecified) -14.3%
Cc1ccc(CNC(=O)c2cnn3c(C)c(Cc4c(F)cccc4Cl)c(C)nc23)cc1 -9.49%
Cc1ccc2oc3c(c(=O)c2c1)C(c1cccc(O)c1)N(CCCN1CCOCC1)C3=O (stereo unspecified) -8.85%
Nc1[nH]c(=O)ncc1F
Cc1cccc(-c2nnc(SCC(=O)NC3CCCCC3)o2)c1 -29.8%
CCOc1ccc(CCNC(=O)c2ccc(C)c(-n3c(C)nc4cccnc43)c2)cc1OCC -14.9%
Cc1cc(Br)ccc1NC(=O)CN1C(=O)c2cccnc2Sc2ccccc21 -20.6%
COc1ccc(N(Cc2cccs2)C(=O)COc2ccc([N+](=O)[O-])cc2)cc1 -27.1%
CCOc1ccc(C(=O)Nc2cc(-c3ccccc3)no2)cc1 30.7%
CCN(Cc1ccccc1)C(=O)c1cc2ccc3cccnc3c2[nH]1 -1.09%
CCOc1ccccc1NC(=O)c1cc2ccc3cccnc3c2[nH]1 37.8%
O=C(O)C(Cc1cc(I)c(O)c(I)c1)c1ccccc1 (stereo unspecified) -10.5%
CCCOc1cccc(C2c3c(oc4ccc(F)cc4c3=O)C(=O)N2Cc2ccc3c(c2)OCO3)c1 (stereo unspecified) -6.57%
Cc1nc(-n2nc(C)c(Cc3ccc4c(c3)OCO4)c2C)sc1C(=O)Nc1ccc(Cl)cc1 -7.68%
Cc1cccc(Cn2cccc2CNS(=O)(=O)c2ccc(C)c(C)c2)c1 -25.5%
CCCCN(Cc1ccco1)C(=O)Cn1ncc2c([nH]c3ccccc32)c1=O -12.1%
